# Measurements taken from the supplement of paper PMC8728848.
# This is one part of the list.
# Experiments:
# Assay in all cases: glycan array binding signal (z-score within array); higher = stronger binding
# Settings in all cases: glycan notation: IUPAC condensed, linker removed
# [1] = biological target: Glc(a1-6)Glc(a1-6)Glc(a1-6)Glc(a1-6)Glc(a1-6)Glc(a1-6)Glc(a1-6)Glc(a1-6)Glc(a1-6)Glc(a1-6)Glc
# How it was run: (§1)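 The Consortium for Functional Glycomics database supplied 3228 glycan arrays, of which those lacking an available protein sequence were dropped. The binding signal, a within-array Z-score, was averaged across arrays of the same protein sequence and across linkers. Negative scores can be read as non-binding.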
# [2] = biological target: Glc(a1-6)Glc(a1-6)Glc(a1-6)Glc(a1-6)Glc(a1-6)Glc(a1-6)Glc(a1-6)Glc(a1-6)Glc(a1-6)Glc(a1-6)Glc(a1-6)Glc
# How it was run: as §1
# [3] = biological target: Glc(a1-6)Glc(a1-6)Glc(a1-6)Glc(a1-6)Glc(a1-6)Glc(a1-6)Glc(a1-6)Glc(a1-6)Glc(a1-6)Glc(a1-6)Glc(a1-6)Glc(a1-6)Glc
# How it was run: as §1
# Glc(b1-2)Glc = biological target: Glc(b1-2)Glc
# How it was run: as §1
# Glc(b1-2)Glc(b1-2)Glc = biological target: Glc(b1-2)Glc(b1-2)Glc
# How it was run: as §1
# [4] = biological target: Glc(b1-2)Glc(b1-2)Glc(b1-2)Glc
# How it was run: as §1
# [5] = biological target: Glc(b1-2)Glc(b1-2)Glc(b1-2)Glc(b1-2)Glc
# How it was run: as §1
# [6] = biological target: Glc(b1-2)Glc(b1-2)Glc(b1-2)Glc(b1-2)Glc(b1-2)Glc
# How it was run: as §1
# [7] = biological target: Glc(b1-2)Glc(b1-2)Glc(b1-2)Glc(b1-2)Glc(b1-2)Glc(b1-2)Glc
# How it was run: as §1
# [8] = biological target: Glc(b1-2)Glc(b1-2)Glc(b1-2)Glc(b1-2)Glc(b1-2)Glc(b1-2)Glc(b1-2)Glc
# How it was run: as §1
# [9] = biological target: Glc(b1-2)Glc(b1-2)Glc(b1-2)Glc(b1-2)Glc(b1-2)Glc(b1-2)Glc(b1-2)Glc(b1-2)Glc
# How it was run: as §1
# [10] = biological target: Glc(b1-2)Glc(b1-2)Glc(b1-2)Glc(b1-2)Glc(b1-2)Glc(b1-2)Glc(b1-2)Glc(b1-2)Glc(b1-2)Glc
# How it was run: as §1
# [11] = biological target: Glc(b1-2)Glc(b1-2)Glc(b1-2)Glc(b1-2)Glc(b1-2)Glc(b1-2)Glc(b1-2)Glc(b1-2)Glc(b1-2)Glc(b1-2)Glc
# How it was run: as §1
# [12] = biological target: Glc(b1-2)Glc(b1-2)Glc(b1-2)Glc(b1-2)Glc(b1-2)Glc(b1-2)Glc(b1-2)Glc(b1-2)Glc(b1-2)Glc(b1-2)Glc(b1-2)Glc
# How it was run: as §1
# [13] = biological target: Glc(b1-2)Glc(b1-2)Glc(b1-2)Glc(b1-2)Glc(b1-2)Glc(b1-2)Glc(b1-2)Glc(b1-2)Glc(b1-2)Glc(b1-2)Glc(b1-2)Glc(b1-2)Glc
# How it was run: as §1
# Glc(b1-3)Glc = biological target: Glc(b1-3)Glc
# How it was run: as §1
# Glc(b1-3)Glc(b1-3)Glc = biological target: Glc(b1-3)Glc(b1-3)Glc
# How it was run: as §1
# [14] = biological target: Glc(b1-3)Glc(b1-3)Glc(b1-3)Glc
# How it was run: as §1
# [15] = biological target: Glc(b1-3)Glc(b1-3)Glc(b1-3)Glc(b1-3)Glc
# How it was run: as §1
# [16] = biological target: Glc(b1-3)Glc(b1-3)Glc(b1-3)Glc(b1-3)Glc(b1-3)Glc
# How it was run: as §1
# [17] = biological target: Glc(b1-3)Glc(b1-3)Glc(b1-3)Glc(b1-3)Glc(b1-3)Glc(b1-3)Glc
# How it was run: as §1
# [18] = biological target: Glc(b1-3)Glc(b1-3)Glc(b1-3)Glc(b1-3)Glc(b1-3)Glc(b1-3)Glc(b1-3)Glc
# How it was run: as §1
# [19] = biological target: Glc(b1-3)Glc(b1-3)Glc(b1-3)Glc(b1-3)Glc(b1-3)Glc(b1-3)Glc(b1-3)Glc(b1-3)Glc
# How it was run: as §1
# [20] = biological target: Glc(b1-3)Glc(b1-3)Glc(b1-3)Glc(b1-3)Glc(b1-3)Glc(b1-3)Glc(b1-3)Glc(b1-3)Glc(b1-3)Glc
# How it was run: as §1
# [21] = biological target: Glc(b1-3)Glc(b1-3)Glc(b1-3)Glc(b1-3)Glc(b1-3)Glc(b1-3)Glc(b1-3)Glc(b1-3)Glc(b1-3)Glc(b1-3)Glc
# How it was run: as §1
# [22] = biological target: Glc(b1-3)Glc(b1-3)Glc(b1-3)Glc(b1-3)Glc(b1-3)Glc(b1-3)Glc(b1-3)Glc(b1-3)Glc(b1-3)Glc(b1-3)Glc(b1-3)Glc
# How it was run: as §1
# [23] = biological target: Glc(b1-3)Glc(b1-3)Glc(b1-3)Glc(b1-3)Glc(b1-3)Glc(b1-3)Glc(b1-3)Glc(b1-3)Glc(b1-3)Glc(b1-3)Glc(b1-3)Glc(b1-3)Glc
# How it was run: as §1
# [24] = biological target: Glc(b1-3)Glc(b1-3)Glc(b1-3)Glc(b1-3)Glc(b1-3)Glc(b1-3)Glc(b1-3)[Glc(b1-6)]Glc(b1-3)Glc
# How it was run: as §1
# [25] = biological target: Glc(b1-3)Glc(b1-3)Glc(b1-3)Glc(b1-3)Glc(b1-3)Glc(b1-3)[Glc(b1-6)]Glc(b1-3)Glc(b1-3)Glc
# How it was run: as §1
# [26] = biological target: Glc(b1-3)Glc(b1-3)Glc(b1-3)Glc(b1-3)[Glc(b1-6)]Glc(b1-3)Glc(b1-3)Glc(b1-3)Glc(b1-3)Glc
# How it was run: as §1
# [27] = biological target: Glc(b1-3)Glc(b1-3)Glc(b1-3)[Glc(b1-6)]Glc(b1-3)Glc(b1-3)Glc(b1-3)Glc(b1-3)[Glc(b1-6)]Glc(b1-3)Glc
# How it was run: as §1
# [28] = biological target: Glc(b1-3)Glc(b1-3)[Glc(b1-6)]Glc(b1-3)Glc(b1-3)Glc(b1-3)Glc(b1-3)Glc(b1-3)Glc(b1-3)Glc
# How it was run: as §1
# Glc(b1-3)Glc(b1-4)Glc = biological target: Glc(b1-3)Glc(b1-4)Glc
# How it was run: as §1
# [29] = biological target: Glc(b1-3)Glc(b1-4)Glc(b1-4)Glc
# How it was run: as §1
# [30] = biological target: Glc(b1-3)Glc(b1-4)Glc(b1-6)Glc(b1-4)Glc
# How it was run: as §1
# [31] = biological target: Glc(b1-3)[Glc(b1-6)]Glc(a1-3)Glc(b1-3)[Glc(b1-6)]Glc
# How it was run: as §1
# [32] = biological target: Glc(b1-3)[Glc(b1-6)]Glc(b1-3)Glc(b1-3)Glc(b1-3)Glc(b1-3)Glc(b1-3)Glc(b1-3)Glc
# How it was run: as §1
# Glc(b1-4)Glc = biological target: Glc(b1-4)Glc
# How it was run: as §1
# Glc(b1-4)Glc(b1-3)Glc = biological target: Glc(b1-4)Glc(b1-3)Glc
# How it was run: as §1
# [33] = biological target: Glc(b1-4)Glc(b1-3)Glc(b1-4)Glc
# How it was run: as §1
# Glc(b1-4)Glc(b1-4)Glc = biological target: Glc(b1-4)Glc(b1-4)Glc
# How it was run: as §1
# [34] = biological target: Glc(b1-4)Glc(b1-4)Glc(b1-3)Glc
# How it was run: as §1
# [35] = biological target: Glc(b1-4)Glc(b1-4)Glc(b1-3)Glc(b1-4)Glc(b1-4)Glc(b1-3)Glc
# How it was run: as §1
# [36] = biological target: Glc(b1-4)Glc(b1-4)Glc(b1-4)Glc
# How it was run: as §1
# [37] = biological target: Glc(b1-4)Glc(b1-4)Glc(b1-4)Glc(b1-3)Glc
# How it was run: as §1
binder,measurement,setting,value
"Cel5A (Cellvibrio mixtus), A0A266Q9Z0 (protein) TSVAGCSGVTAWNSTAVYTGGNEVVRNGVKYQAKWWTQGQDPVTNSSADGVWANKGQC",glycan array binding signal (z-score),[1],-0.864
same,glycan array binding signal (z-score),[2],-0.928
same,glycan array binding signal (z-score),[3],-0.949
same,glycan array binding signal (z-score),Glc(b1-2)Glc,-0.411
same,glycan array binding signal (z-score),Glc(b1-2)Glc(b1-2)Glc,0.043
same,glycan array binding signal (z-score),[4],0.32
same,glycan array binding signal (z-score),[5],1.16
same,glycan array binding signal (z-score),[6],1.32
same,glycan array binding signal (z-score),[7],0.965
same,glycan array binding signal (z-score),[8],0.862
same,glycan array binding signal (z-score),[9],1.65
same,glycan array binding signal (z-score),[10],1.26
same,glycan array binding signal (z-score),[11],1.13
same,glycan array binding signal (z-score),[12],0.794
same,glycan array binding signal (z-score),[13],1.13
same,glycan array binding signal (z-score),Glc(b1-3)Glc,-0.499
same,glycan array binding signal (z-score),Glc(b1-3)Glc(b1-3)Glc,-0.257
same,glycan array binding signal (z-score),[14],1
same,glycan array binding signal (z-score),[15],0.939
same,glycan array binding signal (z-score),[16],0.723
same,glycan array binding signal (z-score),[17],0.483
same,glycan array binding signal (z-score),[18],2.06
same,glycan array binding signal (z-score),[19],1.42
same,glycan array binding signal (z-score),[20],1.21
same,glycan array binding signal (z-score),[21],1.25
same,glycan array binding signal (z-score),[22],1.84
same,glycan array binding signal (z-score),[23],0.966
same,glycan array binding signal (z-score),[24],1.97
same,glycan array binding signal (z-score),[25],1.47
same,glycan array binding signal (z-score),[26],1.41
same,glycan array binding signal (z-score),[27],1.19
same,glycan array binding signal (z-score),[28],2.2
same,glycan array binding signal (z-score),Glc(b1-3)Glc(b1-4)Glc,-0.136
same,glycan array binding signal (z-score),[29],0.834
same,glycan array binding signal (z-score),[30],1.37
same,glycan array binding signal (z-score),[31],2.44
same,glycan array binding signal (z-score),[32],0.587
same,glycan array binding signal (z-score),Glc(b1-4)Glc,-0.392
same,glycan array binding signal (z-score),Glc(b1-4)Glc(b1-3)Glc,0.442
same,glycan array binding signal (z-score),[33],1.38
same,glycan array binding signal (z-score),Glc(b1-4)Glc(b1-4)Glc,0.459
same,glycan array binding signal (z-score),[34],1.38
same,glycan array binding signal (z-score),[35],1.58
same,glycan array binding signal (z-score),[36],0.357
same,glycan array binding signal (z-score),[37],1.17
